# Reference: the supplement of paper PMC4967469
# How the values were obtained:
# Test in all cases: Viability of human cancer cell lines after 72 h of drug (GDSC screen)
# 5-Fluorouracil = compound: O=c1[nH]cc(F)c(=O)[nH]1 [5-Fluorouracil]; conditions: top dose 32 µM; top dose inferred
# Description: (§1)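 Human cancer cell lines in 384-well plates, medium with 10% serum, drug for 72 h over a 256-fold dose range (nine 2-fold or five 4-fold steps up to the top dose). Adherent lines were fixed and stained with the nucleic acid dye Syto60, suspension lines read with resazurin; signal relative to control wells, capped at 0 and 100%. One two-parameter sigmoid per drug and line, fitted in a mixed model over all curves with the slope shared within a line.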
# QS11 = compound: OC[C@H](Cc1ccccc1)Nc1nc(Oc2ccc3c(c2)CCC3)nc2c1ncn2Cc1ccc(-c2ccccc2)cc1 [QS11]; conditions: top dose 10.24 µM
# Description: as §1
# AC220 = compound: CC(C)(C)c1cc(NC(=O)Nc2ccc(-c3cn4c(n3)sc3cc(OCCN5CCOCC5)ccc34)cc2)no1 [AC220]; conditions: top dose 1.024 µM; top dose inferred
# Description: as §1
# CUDC-101 = compound: C#Cc1cccc(Nc2ncnc3cc(OC)c(OCCCCCCC(=O)NO)cc23)c1 [CUDC-101]; conditions: top dose 5.12 µM; top dose inferred
# Description: as §1
# JNK-9L = compound: Fc1cc(-c2ccnc(Nc3ccc(-n4cnc(N5CCOCC5)n4)cc3)n2)cc(N2CCOCC2)c1 [JNK-9L]; conditions: top dose 5.12 µM; top dose inferred
# Description: as §1
# RDEA119 = compound: COc1cc(F)c(F)c(Nc2ccc(I)cc2F)c1NS(=O)(=O)C1(C[C@H](O)CO)CC1 [RDEA119]; conditions: top dose 5 µM, top dose inferred
# Description: as §1
# OSU-03012 = compound: NCC(=O)Nc1ccc(-n2nc(C(F)(F)F)cc2-c2ccc3c(ccc4ccccc43)c2)cc1 [OSU-03012]; conditions: top dose 16 µM; top dose inferred
# Description: as §1
Cell Line,AUC (5-Fluorouracil),IC50 (5-Fluorouracil) [µM],AUC (QS11),IC50 (QS11) [µM],AUC (AC220),IC50 (AC220) [µM],AUC (CUDC-101),IC50 (CUDC-101) [µM],AUC (JNK-9L),IC50 (JNK-9L) [µM],AUC (RDEA119; screen: GDSC drug entry 1526),IC50 (RDEA119; screen: GDSC drug entry 1526) [µM],AUC (OSU-03012),IC50 (OSU-03012) [µM],AUC (RDEA119; screen: GDSC drug entry 1014),IC50 (RDEA119; screen: GDSC drug entry 1014) [µM]
"SK-N-DZ (neuroblastoma, adherent)",0.779,12.9,0.72,2.66,0.988,> 1.02,0.766,1.87,0.778,2.05,0.987,> 5,0.801,7.7,–,–
"SK-N-FI (neuroblastoma, adherent)",0.971,> 32,0.989,> 10.2,0.977,> 1.02,0.673,0.971,0.884,> 5.12,0.909,> 5,0.877,15.8,0.688,1.04
"SK-N-SH (neuroblastoma, adherent)",0.907,> 32,0.987,> 10.2,0.987,> 1.02,0.536,0.401,0.358,0.13,0.883,> 5,0.77,6.05,0.876,4.92
"SK-PN-DW (Ewing sarcoma, adherent)",0.721,8.7,0.806,–,0.971,> 1.02,0.515,0.351,0.636,0.774,0.982,> 5,0.635,2.4,0.986,> 5
"SK-UT-1 (soft tissue, adherent)",0.982,> 32,0.953,> 10.2,0.978,> 1.02,0.944,> 5.12,0.36,0.137,0.934,> 5,0.736,4.38,–,–
"SKG-IIIa (cervix, adherent)",0.983,> 32,0.976,> 10.2,0.983,> 1.02,0.871,> 5.12,0.784,3,0.971,> 5,0.852,> 16,0.864,> 5
"SKN (uterus, adherent)",0.901,> 32,0.968,> 10.2,0.914,> 1.02,0.587,0.582,0.7,1.33,0.822,3.76,0.81,10.7,0.804,3.15
"SKN-3 (head and neck, adherent)",0.888,> 32,0.983,> 10.2,0.983,> 1.02,0.437,0.209,0.638,0.829,0.794,2.79,0.983,> 16,0.735,1.68
"SLVL (B-cell lymphoma, suspension)",0.266,0.412,0.962,> 10.2,0.978,> 1.02,0.226,0.0481,0.627,0.731,0.929,> 5,0.696,3.69,0.892,> 5
"SNB75 (glioma, adherent)",0.846,> 32,0.97,> 10.2,0.965,> 1.02,0.715,1.75,0.498,0.314,0.782,3.22,0.842,> 16,0.836,> 5
"SNU-182 (liver, adherent)",0.955,> 32,0.954,> 10.2,0.986,> 1.02,0.335,0.109,0.646,0.827,0.853,4.19,0.688,3.45,0.929,> 5
"SNU-387 (liver, adherent)",0.939,> 32,0.955,> 10.2,0.984,> 1.02,0.37,0.133,0.507,0.335,–,–,0.769,6.88,0.592,0.58
"SNU-398 (liver, adherent)",0.783,14.1,0.932,> 10.2,0.964,> 1.02,0.499,0.319,0.201,0.0399,0.843,3.75,0.606,1.97,–,–
"SNU-423 (liver, adherent)",0.716,9.16,0.902,> 10.2,0.979,> 1.02,0.38,0.141,0.541,0.421,0.797,2.83,0.736,5.36,0.835,4.12
"SNU-449 (liver, adherent)",0.923,> 32,0.534,0.797,0.986,> 1.02,0.801,2.77,0.602,0.629,0.776,2.19,0.752,5.77,0.829,3.53
"SNU-C1 (large intestine, suspension)",0.809,27.4,0.793,7.42,0.975,> 1.02,0.723,1.88,0.522,0.377,0.406,0.153,0.977,> 16,0.385,0.13
"SR (lymphoid neoplasm, suspension)",0.297,0.573,0.884,9.13,0.981,> 1.02,0.114,0.022,0.354,0.132,0.955,> 5,0.64,2.33,0.904,> 5
"ST486 (Burkitt lymphoma, suspension)",0.591,3.45,0.94,> 10.2,0.955,> 1.02,0.14,0.029,0.412,–,0.989,> 5,0.769,5.39,0.91,> 5

# By IC50 is meant the dose at which the fit gives 50% viability; a limit (>, <) means that the fit lies beyond the doses tested. AUC sums up the same curve from the lowest dose to the 256-fold higher top dose; values near 1 show little effect. For some assays here: An inferred top dose comes from the curve model; the source does not state it. For some assays here: An entry number marks a drug with two screens in the source, which often give different values.
